Data published in the supplement of paper PMC8728848.
The other results are listed elsewhere or left out.

Columns and labels:
Test in all cases: glycan array binding signal (z-score within array); higher = stronger binding
Settings in all cases: glycan notation: IUPAC condensed, linker removed
[1] = biological target: GlcNAc(a1-4)Gal(b1-3)GlcNAc
How it was run: (§1)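 The binding signal is a Z-score computed within each array. Data were drawn from 3228 arrays in the Consortium for Functional Glycomics database, restricted to those with a known protein sequence. Scores were averaged over arrays of the same protein sequence at different concentrations or buffers, and over linkers, and negative values can be taken as non-binding.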

[2] = biological target: GlcNAc(a1-4)Gal(b1-4)GalNAc
How it was run: as §1

[3] = biological target: GlcNAc(a1-4)Gal(b1-4)GlcNAc
How it was run: as §1

[4] = biological target: GlcNAc(a1-4)Gal(b1-4)GlcNAc(b1-3)Gal(b1-4)Glc
How it was run: as §1

[5] = biological target: GlcNAc(a1-4)Gal(b1-4)GlcNAc(b1-3)Gal(b1-4)GlcNAc
How it was run: as §1

[6] = biological target: GlcNAc(a1-4)Gal(b1-4)GlcNAc(b1-3)Gal(b1-4)GlcNAc(b1-3)Gal(b1-4)GlcNAc
How it was run: as §1

[7] = biological target: GlcNAc(a1-4)Gal(b1-4)GlcNAc(b1-3)Gal(b1-4)[Fuc(a1-3)]GlcNAc(b1-3)Gal(b1-4)[Fuc(a1-3)]GlcNAc
How it was run: as §1

[8] = biological target: GlcNAc(a1-6)Gal(b1-4)GlcNAc
How it was run: as §1

[9] = biological target: GlcNAc(b1-2)Gal(b1-3)GalNAc
How it was run: as §1

[10] = biological target: GlcNAc(b1-2)Man(a1-3)[GlcNAc(b1-2)Man(a1-6)]Man(b1-4)GlcNAc(b1-4)GlcNAc
How it was run: as §1

[11] = biological target: GlcNAc(b1-2)Man(a1-3)[GlcNAc(b1-2)Man(a1-6)]Man(b1-4)GlcNAc(b1-4)[Fuc(a1-6)]GlcNAc
How it was run: as §1

[12] = biological target: GlcNAc(b1-2)Man(a1-3)[GlcNAc(b1-4)][GlcNAc(b1-2)Man(a1-6)]Man(b1-4)GlcNAc(b1-4)GlcNAc
How it was run: as §1

[13] = biological target: GlcNAc(b1-2)Man(a1-3)[GlcNAc(b1-4)][GlcNAc(b1-2)Man(a1-6)]Man(b1-4)GlcNAc(b1-4)[Fuc(a1-6)]GlcNAc
How it was run: as §1

[14] = biological target: GlcNAc(b1-2)[GlcNAc(b1-4)]Man(a1-3)[GlcNAc(b1-2)Man(a1-6)]Man(b1-4)GlcNAc(b1-4)GlcNAc
How it was run: as §1

[15] = biological target: GlcNAc(b1-2)[GlcNAc(b1-4)]Man(a1-3)[GlcNAc(b1-4)][GlcNAc(b1-2)Man(a1-6)]Man(b1-4)GlcNAc(b1-4)GlcNAc
How it was run: as §1

[16] = biological target: GlcNAc(b1-2)[GlcNAc(b1-4)]Man(a1-3)[GlcNAc(b1-4)][GlcNAc(b1-2)[GlcNAc(b1-6)]Man(a1-6)]Man(b1-4)GlcNAc(b1-4)GlcNAc
How it was run: as §1

[17] = biological target: GlcNAc(b1-2)[GlcNAc(b1-4)]Man(a1-3)[GlcNAc(b1-4)][GlcNAc(b1-2)[GlcNAc(b1-6)]Man(a1-6)]Man(b1-4)GlcNAc(b1-4)[Fuc(a1-6)]GlcNAc
How it was run: as §1

[18] = biological target: GlcNAc(b1-2)[GlcNAc(b1-6)]Man(a1-6)[GlcNAc(b1-2)Man(a1-3)]Man(b1-4)GlcNAc(b1-4)GlcNAc
How it was run: as §1

[19] = biological target: GlcNAc(b1-2)[GlcNAc(b1-6)]Man(a1-6)[GlcNAc(b1-2)Man(a1-3)]Man(b1-4)GlcNAc(b1-4)[Fuc(a1-6)]GlcNAc
How it was run: as §1

[20] = biological target: GlcNAc(b1-2)[GlcNAc(b1-6)]Man(a1-6)[GlcNAc(b1-4)][GlcNAc(b1-2)Man(a1-3)]Man(b1-4)GlcNAc(b1-4)GlcNAc
How it was run: as §1

[21] = biological target: GlcNAc(b1-3)Fuc
How it was run: as §1

[22] = biological target: GlcNAc(b1-3)Gal
How it was run: as §1

[23] = biological target: GlcNAc(b1-3)Gal(b1-3)GalNAc
How it was run: as §1

[24] = biological target: GlcNAc(b1-3)Gal(b1-4)Glc
How it was run: as §1

[25] = biological target: GlcNAc(b1-3)Gal(b1-4)GlcNAc
How it was run: as §1

[26] = biological target: GlcNAc(b1-3)Gal(b1-4)GlcNAc(b1-2)Man(a1-3)[GlcNAc(b1-3)Gal(b1-4)GlcNAc(b1-2)Man(a1-6)]Man(b1-4)GlcNAc(b1-4)GlcNAc
How it was run: as §1

[27] = biological target: GlcNAc(b1-3)Gal(b1-4)GlcNAc(b1-2)Man(a1-3)[GlcNAc(b1-3)Gal(b1-4)GlcNAc(b1-2)Man(a1-6)]Man(b1-4)GlcNAc(b1-4)[Fuc(a1-6)]GlcNAc
How it was run: as §1

[28] = biological target: GlcNAc(b1-3)Gal(b1-4)GlcNAc(b1-2)[GlcNAc(b1-3)Gal(b1-4)GlcNAc(b1-6)]Man(a1-6)[GlcNAc(b1-3)Gal(b1-4)GlcNAc(b1-2)Man(a1-3)]Man(b1-4)GlcNAc(b1-4)GlcNAc
How it was run: as §1

[29] = biological target: GlcNAc(b1-3)Gal(b1-4)GlcNAc(b1-3)Gal(b1-4)GlcNAc
How it was run: as §1

[30] = biological target: GlcNAc(b1-3)Gal(b1-4)GlcNAc(b1-3)Gal(b1-4)GlcNAc(b1-2)Man(a1-3)[GlcNAc(b1-3)Gal(b1-4)GlcNAc(b1-3)Gal(b1-4)GlcNAc(b1-2)Man(a1-6)]Man(b1-4)GlcNAc(b1-4)GlcNAc
How it was run: as §1

[31] = biological target: GlcNAc(b1-3)Gal(b1-4)GlcNAc(b1-3)Gal(b1-4)GlcNAc(b1-2)Man(a1-3)[GlcNAc(b1-3)Gal(b1-4)GlcNAc(b1-3)Gal(b1-4)GlcNAc(b1-2)Man(a1-6)]Man(b1-4)GlcNAc(b1-4)[Fuc(a1-6)]GlcNAc
How it was run: as §1

[32] = biological target: GlcNAc(b1-3)Gal(b1-4)GlcNAc(b1-3)Gal(b1-4)GlcNAc(b1-2)[GlcNAc(b1-3)Gal(b1-4)GlcNAc(b1-3)Gal(b1-4)GlcNAc(b1-6)]Man(a1-6)[GlcNAc(b1-3)Gal(b1-4)GlcNAc(b1-3)Gal(b1-4)GlcNAc(b1-2)Man(a1-3)]Man(b1-4)GlcNAc(b1-4)[Fuc(a1-6)]GlcNAc
How it was run: as §1

[33] = biological target: GlcNAc(b1-3)Gal(b1-4)GlcNAc(b1-3)Gal(b1-4)GlcNAc(b1-3)Gal(b1-4)GlcNAc(b1-2)Man(a1-3)[GlcNAc(b1-3)Gal(b1-4)GlcNAc(b1-3)Gal(b1-4)GlcNAc(b1-3)Gal(b1-4)GlcNAc(b1-2)Man(a1-6)]Man(b1-4)GlcNAc(b1-4)GlcNAc
How it was run: as §1

[34] = biological target: GlcNAc(b1-3)Gal(b1-4)GlcNAc(b1-3)Gal(b1-4)GlcNAc(b1-3)Gal(b1-4)GlcNAc(b1-2)Man(a1-3)[GlcNAc(b1-3)Gal(b1-4)GlcNAc(b1-3)Gal(b1-4)GlcNAc(b1-3)Gal(b1-4)GlcNAc(b1-2)Man(a1-6)]Man(b1-4)GlcNAc(b1-4)[Fuc(a1-6)]GlcNAc
How it was run: as §1

[35] = biological target: GlcNAc(b1-3)Gal(b1-4)GlcNAc(b1-3)Gal(b1-4)GlcNAc(b1-3)Gal(b1-4)GlcNAc(b1-2)[GlcNAc(b1-3)Gal(b1-4)GlcNAc(b1-3)Gal(b1-4)GlcNAc(b1-3)Gal(b1-4)GlcNAc(b1-6)]Man(a1-6)[GlcNAc(b1-3)Gal(b1-4)GlcNAc(b1-3)Gal(b1-4)GlcNAc(b1-3)Gal(b1-4)GlcNAc(b1-2)Man(a1-3)]Man(b1-4)GlcNAc(b1-4)[Fuc(a1-6)]GlcNAc
How it was run: as §1

[36] = biological target: GlcNAc(b1-3)Gal(b1-4)GlcNAc(b1-3)Gal(b1-4)GlcNAc(b1-3)Gal(b1-4)GlcNAc(b1-3)Gal(b1-4)GlcNAc(b1-2)Man(a1-3)[GlcNAc(b1-3)Gal(b1-4)GlcNAc(b1-3)Gal(b1-4)GlcNAc(b1-3)Gal(b1-4)GlcNAc(b1-3)Gal(b1-4)GlcNAc(b1-2)Man(a1-6)]Man(b1-4)GlcNAc(b1-4)GlcNAc
How it was run: as §1

[37] = biological target: GlcNAc(b1-3)Gal(b1-4)GlcNAc(b1-3)Gal(b1-4)GlcNAc(b1-3)Gal(b1-4)GlcNAc(b1-3)Gal(b1-4)GlcNAc(b1-2)Man(a1-3)[GlcNAc(b1-3)Gal(b1-4)GlcNAc(b1-3)Gal(b1-4)GlcNAc(b1-3)Gal(b1-4)GlcNAc(b1-3)Gal(b1-4)GlcNAc(b1-2)Man(a1-6)]Man(b1-4)GlcNAc(b1-4)[Fuc(a1-6)]GlcNAc
How it was run: as §1

[38] = biological target: GlcNAc(b1-3)Gal(b1-4)GlcNAc(b1-3)Gal(b1-4)GlcNAc(b1-3)Gal(b1-4)GlcNAc(b1-3)Gal(b1-4)GlcNAc(b1-2)[GlcNAc(b1-3)Gal(b1-4)GlcNAc(b1-3)Gal(b1-4)GlcNAc(b1-3)Gal(b1-4)GlcNAc(b1-3)Gal(b1-4)GlcNAc(b1-6)]Man(a1-6)[GlcNAc(b1-3)Gal(b1-4)GlcNAc(b1-3)Gal(b1-4)GlcNAc(b1-3)Gal(b1-4)GlcNAc(b1-3)Gal(b1-4)GlcNAc(b1-2)Man(a1-3)]Man(b1-4)GlcNAc(b1-4)[Fuc(a1-6)]GlcNAc
How it was run: as §1

[39] = biological target: GlcNAc(b1-3)Gal(b1-4)GlcNAc(b1-3)Gal(b1-4)GlcNAc(b1-3)GalNAc
How it was run: as §1

[40] = biological target: GlcNAc(b1-3)Gal(b1-4)GlcNAc(b1-3)GalNAc
How it was run: as §1

[41] = biological target: GlcNAc(b1-3)Gal(b1-4)GlcNAc(b1-3)[GlcNAc(b1-3)Gal(b1-4)GlcNAc(b1-3)]GalNAc
How it was run: as §1

[42] = biological target: GlcNAc(b1-3)Gal(b1-4)GlcNAc(b1-6)[Gal(b1-3)]GalNAc
How it was run: as §1

[43] = biological target: GlcNAc(b1-3)Gal(b1-4)GlcNAc(b1-6)[GlcNAc(b1-3)Gal(b1-3)]GalNAc
How it was run: as §1

[44] = biological target: GlcNAc(b1-3)Gal(b1-4)GlcNAc(b1-6)[GlcNAc(b1-3)]Gal(b1-4)GlcNAc
How it was run: as §1

[45] = biological target: GlcNAc(b1-3)GalNAc
How it was run: as §1

B1: HHA (Hippeastrum hybrid) (protein)
chain: MQQDCNLVLYDVDKPIWASNTGGLARDCHLNMQSDGNLVVYAPRNQVIWASNTQGENGNYVCILQKDRNVVIYGTARWATGTNIHGAGIVGVPGSAPQNTTAEMIKLVRKYLITK
- glycan array binding signal (z-score) [1]: -0.21
- glycan array binding signal (z-score) [2]: -0.091
- glycan array binding signal (z-score) [3]: -0.212
- glycan array binding signal (z-score) [4]: -0.215
- glycan array binding signal (z-score) [5]: -0.209
- glycan array binding signal (z-score) [6]: -0.21
- glycan array binding signal (z-score) [7]: -0.16
- glycan array binding signal (z-score) [8]: -0.203
- glycan array binding signal (z-score) [9]: 0.16
- glycan array binding signal (z-score) [10]: 0.836
- glycan array binding signal (z-score) [11]: -0.168
- glycan array binding signal (z-score) [12]: -0.204
- glycan array binding signal (z-score) [13]: -0.206
- glycan array binding signal (z-score) [14]: 0.101
- glycan array binding signal (z-score) [15]: -0.208
- glycan array binding signal (z-score) [16]: -0.217
- glycan array binding signal (z-score) [17]: -0.215
- glycan array binding signal (z-score) [18]: -0.211
- glycan array binding signal (z-score) [19]: -0.2
- glycan array binding signal (z-score) [20]: -0.218
- glycan array binding signal (z-score) [21]: -0.185
- glycan array binding signal (z-score) [22]: -0.201
- glycan array binding signal (z-score) [23]: 0.735
- glycan array binding signal (z-score) [24]: -0.208
- glycan array binding signal (z-score) [25]: -0.204
- glycan array binding signal (z-score) [26]: -0.203
- glycan array binding signal (z-score) [27]: -0.147
- glycan array binding signal (z-score) [28]: -0.104
- glycan array binding signal (z-score) [29]: -0.198
- glycan array binding signal (z-score) [30]: -0.132
- glycan array binding signal (z-score) [31]: -0.17
- glycan array binding signal (z-score) [32]: -0.16
- glycan array binding signal (z-score) [33]: -0.186
- glycan array binding signal (z-score) [34]: -0.153
- glycan array binding signal (z-score) [35]: -0.152
- glycan array binding signal (z-score) [36]: -0.148
- glycan array binding signal (z-score) [37]: -0.16
- glycan array binding signal (z-score) [38]: -0.124
- glycan array binding signal (z-score) [39]: 0.315
- glycan array binding signal (z-score) [40]: 0.005
- glycan array binding signal (z-score) [41]: -0.208
- glycan array binding signal (z-score) [42]: -0.204
- glycan array binding signal (z-score) [43]: -0.156
- glycan array binding signal (z-score) [44]: -0.185
- glycan array binding signal (z-score) [45]: 1.08
